# The supplement of paper PMC6089552
# The campaign covered roughly 3,200 compounds. About 300 (9.4%) showed activity. The list shows a part of the results, in another mix than the full data.
# System: A673/TR/shEF
# Assay: cell viability (LOESS-normalised, relative to median of negative controls) (log2 ratio); higher = more viable cells (less compound effect), active = hit call of the paper (over 3 MAD below the median)
# Conditions: treatment time: 72 h
# How it was run: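 Viability of A673/TR/shEF Ewing sarcoma cells was determined by CellTiter-Glo luminescence. The cells, at 1,500 per well in 384-well plates, were grown with or without doxycycline from 24 h before compound addition to switch on EWS-FLI1 shRNA knockdown, then exposed for three days to library compounds at two or more concentrations or to DMSO controls. Signals were LOESS-corrected plate by plate, normalised to the negative-control median and log2-transformed.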
# [1] = 0.25 µM, library screen: screen1, EWS-FLI1 expression: high (no doxycycline)
# [2] = 0.25 µM, library screen: screen1, EWS-FLI1 expression: low (doxycycline-induced shRNA knockdown)
# [3] = 0.25 µM, library screen: screen2, EWS-FLI1 expression: high (no doxycycline)
# [4] = 0.25 µM, library screen: screen2, EWS-FLI1 expression: low (doxycycline-induced shRNA knockdown)
# [5] = 2.5 µM, library screen: screen1, EWS-FLI1 expression: high (no doxycycline)
# [6] = 2.5 µM, library screen: screen1, EWS-FLI1 expression: low (doxycycline-induced shRNA knockdown)
# [7] = 2.5 µM, library screen: screen2, EWS-FLI1 expression: high (no doxycycline)
# [8] = 2.5 µM, library screen: screen2, EWS-FLI1 expression: low (doxycycline-induced shRNA knockdown)
# [9] = 0.103 µM, library screen: screen3, EWS-FLI1 expression: high (no doxycycline)
# [10] = 0.103 µM, library screen: screen3, EWS-FLI1 expression: low (doxycycline-induced shRNA knockdown)
# [11] = 0.308 µM, library screen: screen3, EWS-FLI1 expression: high (no doxycycline)
# [12] = 0.308 µM, library screen: screen3, EWS-FLI1 expression: low (doxycycline-induced shRNA knockdown)
# [13] = 0.926 µM, library screen: screen3, EWS-FLI1 expression: high (no doxycycline)
# [14] = 0.926 µM, library screen: screen3, EWS-FLI1 expression: low (doxycycline-induced shRNA knockdown)
# [15] = 2.8 µM, library screen: screen3, EWS-FLI1 expression: high (no doxycycline)
# [16] = 2.8 µM, library screen: screen3, EWS-FLI1 expression: low (doxycycline-induced shRNA knockdown)
# [17] = 8.3 µM, library screen: screen3, EWS-FLI1 expression: high (no doxycycline)
# [18] = 8.3 µM, library screen: screen3, EWS-FLI1 expression: low (doxycycline-induced shRNA knockdown)
# [19] = 25 µM, library screen: screen3, EWS-FLI1 expression: high (no doxycycline)
# [20] = 25 µM, library screen: screen3, EWS-FLI1 expression: low (doxycycline-induced shRNA knockdown)
smiles,measurement,setting,value
Nc1ccc(S(=O)(=O)c2ccc(N)cc2)cc1,cell viability (log2),[1],inactive: 0.128
same,cell viability (log2),[2],inactive: 0.0378
same,cell viability (log2),[3],inactive: 0.169
same,cell viability (log2),[4],inactive: 0.151
same,cell viability (log2),[5],inactive: 0.17
same,cell viability (log2),[6],inactive: 0.175
same,cell viability (log2),[7],inactive: 0.125
same,cell viability (log2),[8],inactive: 0.107
OC[C@H]1O[C@@H](Oc2ccc(O)cc2)[C@H](O)[C@@H](O)[C@@H]1O,cell viability (log2),[1],inactive: 0.043
same,cell viability (log2),[2],inactive: -0.0242
same,cell viability (log2),[5],inactive: 0.114
same,cell viability (log2),[6],inactive: 0.0261
OCCN1CCN(CCCN2c3ccccc3Sc3ccc(Cl)cc32)CC1,cell viability (log2),[1],inactive: 0.00879
same,cell viability (log2),[2],inactive: 0.0101
same,cell viability (log2),[3],inactive: 0.125
same,cell viability (log2),[4],inactive: 0.0375
same,cell viability (log2),[5],inactive: 0.124
same,cell viability (log2),[6],inactive: 0.151
same,cell viability (log2),[7],inactive: 0.179
same,cell viability (log2),[8],inactive: 0.136
CN(C)CCc1c[nH]c2ccc(Cn3cncn3)cc12,cell viability (log2),[9],inactive: 0.0562
same,cell viability (log2),[10],inactive: -0.00371
same,cell viability (log2),[11],inactive: 0.0343
same,cell viability (log2),[12],inactive: 0.0436
same,cell viability (log2),[13],inactive: 0.064
same,cell viability (log2),[14],inactive: 0.0432
same,cell viability (log2),[15],inactive: 0.0685
same,cell viability (log2),[16],inactive: 0.0816
same,cell viability (log2),[17],inactive: -0.0115
same,cell viability (log2),[18],inactive: 0.0507
same,cell viability (log2),[19],inactive: 0.0815
same,cell viability (log2),[20],inactive: 0.149
CCCCC(=O)N(Cc1ccc(-c2ccccc2-c2nn[nH]n2)cc1)[C@H](C(=O)O)C(C)C,cell viability (log2),[9],inactive: 0.0298
same,cell viability (log2),[10],inactive: -0.0095
same,cell viability (log2),[11],inactive: 0.124
same,cell viability (log2),[12],inactive: 0.0801
same,cell viability (log2),[13],inactive: 0.0765
same,cell viability (log2),[14],inactive: 0.054
same,cell viability (log2),[15],inactive: 0.0694
same,cell viability (log2),[16],inactive: 0.124
same,cell viability (log2),[17],inactive: 0.00201
same,cell viability (log2),[18],inactive: 0.078
same,cell viability (log2),[19],inactive: 0.137
same,cell viability (log2),[20],inactive: 0.104
NCCCCCCCCCCN,cell viability (log2),[3],inactive: 0.103
same,cell viability (log2),[4],inactive: 0.1
same,cell viability (log2),[7],inactive: 0.0867
same,cell viability (log2),[8],inactive: 0.0848
CC(CCC(=O)O)C1CCC2C3CCC4CC(O)CCC4(C)C3CC(O)C12C (centres undefined),cell viability (log2),[1],inactive: 0.105
same,cell viability (log2),[2],inactive: 0.0658
same,cell viability (log2),[5],inactive: 0.0998
same,cell viability (log2),[6],inactive: -0.158
CC1(C)OC(=O)NC1=O,cell viability (log2),[1],inactive: 0.219
same,cell viability (log2),[2],inactive: 0.229
same,cell viability (log2),[5],inactive: 0.216
same,cell viability (log2),[6],inactive: 0.255
Cn1nnnc1SCC1=C(C(=O)O)N2C(=O)[C@@H](NC(=O)[C@H](O)c3ccccc3)[C@H]2SC1,cell viability (log2),[1],inactive: 0.0941
same,cell viability (log2),[2],inactive: 0.078
same,cell viability (log2),[5],inactive: 0.134
same,cell viability (log2),[6],inactive: 0.0231
CCC[C@H](N[C@@H](C)C(=O)N1[C@H](C(=O)O)C[C@@H]2CCCC[C@@H]21)C(=O)OCC,cell viability (log2),[9],inactive: 0.0551
same,cell viability (log2),[10],inactive: 0.0368
same,cell viability (log2),[11],inactive: -0.0226
same,cell viability (log2),[12],inactive: 0.0389
same,cell viability (log2),[13],inactive: -0.00229
same,cell viability (log2),[14],inactive: 0.0366
same,cell viability (log2),[15],inactive: 0.0283
same,cell viability (log2),[16],inactive: -0.00742
same,cell viability (log2),[17],inactive: 0.00239
same,cell viability (log2),[18],inactive: 0.0184
same,cell viability (log2),[19],inactive: -0.0397
same,cell viability (log2),[20],inactive: -0.0223
COc1ccc(NS(=O)(=O)c2ccc(N)cc2)nn1,cell viability (log2),[1],inactive: 0.0941
same,cell viability (log2),[2],inactive: -0.0774
same,cell viability (log2),[5],inactive: 0.18
same,cell viability (log2),[6],inactive: 0.126
CCC1(O)CC2CN(CCc3c([nH]c4ccccc34)[C@@](C(=O)OC)(c3cc4c(cc3OC)N(C)C3[C@]45CCN4CC=C[C@@](CC)([C@@H](OC(C)=O)[C@]3(O)C(=O)OC)[C@H]45)C2)C1 (some centres undefined),cell viability (log2),[3],active: -3.54
same,cell viability (log2),[4],active: -0.483
same,cell viability (log2),[7],active: -3.67
same,cell viability (log2),[8],active: -0.537
CC(=O)Oc1cccc2c1C(=O)c1c(OC(C)=O)cc(C(=O)O)cc1C2=O,cell viability (log2),[1],inactive: 0.0277
same,cell viability (log2),[2],inactive: 0.0297
same,cell viability (log2),[5],inactive: 0.151
same,cell viability (log2),[6],inactive: 0.0875
N/C(=N\S(=O)(=O)Cc1ccccc1)Nc1nc2ccccc2o1,cell viability (log2),[1],inactive: 0.0883
same,cell viability (log2),[2],inactive: 0.00923
same,cell viability (log2),[5],inactive: 0.149
same,cell viability (log2),[6],inactive: 0.031
O=C(Nc1ccccn1)c1cc(-c2ccccc2)nc2ccccc12,cell viability (log2),[1],inactive: 0.083
same,cell viability (log2),[2],inactive: -0.00975
same,cell viability (log2),[5],inactive: 0.0888
same,cell viability (log2),[6],inactive: -0.0311
COC(=O)C1=CO[C@@H](O[C@@H]2O[C@H](CO)[C@@H](O)[C@H](O)[C@H]2O)[C@@H]2[C@@H](C)[C@@H](O)C[C@H]12,cell viability (log2),[1],inactive: 0.0575
same,cell viability (log2),[2],inactive: -0.00514
same,cell viability (log2),[5],inactive: 0.124
same,cell viability (log2),[6],inactive: 0.114
O=c1oc(Cl)c(Cl)c2ccccc12,cell viability (log2),[3],inactive: 0.184
same,cell viability (log2),[4],inactive: 0.123
same,cell viability (log2),[7],inactive: 0.147
same,cell viability (log2),[8],inactive: 0.165
CC(=O)N[C@@H](CCC(=O)O)C(=O)O,cell viability (log2),[1],inactive: 0.0426
same,cell viability (log2),[2],inactive: 0.0495
same,cell viability (log2),[5],inactive: 0.162
same,cell viability (log2),[6],inactive: 0.0791
CCCC(=O)Nc1ncnc2c1ncn2[C@@H]1O[C@@H]2COP(=O)(O)O[C@H]2[C@H]1OC(=O)CCC,cell viability (log2),[1],inactive: 0.0521
same,cell viability (log2),[2],inactive: 0.034
same,cell viability (log2),[5],inactive: 0.0682
same,cell viability (log2),[6],inactive: 0.0438
CN1CCCC1c1cccnc1 (centres undefined),cell viability (log2),[1],inactive: 0.113
same,cell viability (log2),[2],inactive: 0.067
same,cell viability (log2),[5],inactive: 0.0646
same,cell viability (log2),[6],inactive: 0.132
CN1CCCC(n2nc(Cc3ccc(Cl)cc3)c3ccccc3c2=O)CC1 (centres undefined),cell viability (log2),[9],inactive: 0.00451
same,cell viability (log2),[10],inactive: 0.0233
same,cell viability (log2),[11],inactive: 0.0154
same,cell viability (log2),[12],inactive: 0.0686
same,cell viability (log2),[13],inactive: 0.0285
same,cell viability (log2),[14],inactive: 0.0485
same,cell viability (log2),[15],inactive: 0.0385
same,cell viability (log2),[16],inactive: 0.0809
same,cell viability (log2),[17],inactive: 0.0197
same,cell viability (log2),[18],inactive: 0.0247
same,cell viability (log2),[19],inactive: -0.00429
same,cell viability (log2),[20],inactive: -0.0202
CCN(CC)CCOc1ccc(/C(=C(\Cl)c2ccccc2)c2ccccc2)cc1,cell viability (log2),[9],inactive: 0.0849
same,cell viability (log2),[10],inactive: 0.106
same,cell viability (log2),[1],inactive: 0.0772
same,cell viability (log2),[2],inactive: 0.0741
same,cell viability (log2),[11],inactive: 0.0999
same,cell viability (log2),[12],inactive: 0.0666
same,cell viability (log2),[13],inactive: 0.0054
same,cell viability (log2),[14],inactive: 0.0776
same,cell viability (log2),[5],inactive: 0.197
same,cell viability (log2),[6],inactive: 0.104
same,cell viability (log2),[15],inactive: 0.063
same,cell viability (log2),[16],inactive: 0.0123
same,cell viability (log2),[17],inactive: 0.00146
same,cell viability (log2),[18],inactive: 0.0364
same,cell viability (log2),[19],inactive: -0.048
same,cell viability (log2),[20],inactive: 0.0654
COc1c(C2COc3cc4c(cc3C2=O)CC(O)C(C)(C)O4)ccc2c1CCC(C)(C)O2 (centres undefined),cell viability (log2),[1],inactive: 0.0719
same,cell viability (log2),[2],inactive: 0.0278
same,cell viability (log2),[5],inactive: 0.0883
same,cell viability (log2),[6],inactive: 0.0229
